# What was measured:
# [1] = system: RT16 CHO cells expressing human FRα; conditions: from Table 2 ratios
# [2] = system: D4 CHO cells expressing human FRβ; conditions: from Table 2 ratios
smiles,measurement,setting,value
"Nc1nc2[nH]c(CCCc3cc(C(=O)N[C@@H](CCC(=O)O)C(=O)O)cs3)cc2c(=O)[nH]1 [compound 7, (S)-2-({5-[3-(2-Amino-4-oxo-4,7-dihydro-3H-pyrrolo[2,3-d]-pyrimidin-6-yl)-propyl]-thiophene-3-carbonyl}-amino)-pentanedioic Acid]","FRα selectivity ratio, fold greater than that for PMX",[1],185 fold
same,"FRβ selectivity ratio, fold greater than that for PMX",[2],822 fold
